# The list shows a part of the results.
# B1: Sebin2 (Coprinopsis cinerea), A8PE78 (protein)
# chain: MTTPFYAYCHNVQDDNTWRLGLVFANRSTADEWWRAISEATSSIPITKSITRVTPQYYTHDIRVWNMYNFFVDGNIKSISDKFRGRLFITLEYDRSGRGVSVFPPLHIVDHVSGNWYYIRSKTAPHLFWFYDETRNAIYASKEKRTRFKVSIRNPSPQTPKDAIMINSDDVVIHIKESLYVGVDSYLGHIIPTRAYRTFKFGELEGGAIAGIEVAENAEERCSSTFDGASLYFVGPDSSSPGEPWELV
# How the values were obtained:
# Assay in all cases: glycan array binding signal (z-score within array); higher = stronger binding
# Conditions in all cases: glycan notation: IUPAC condensed, linker removed
# [1] = target: Gal(b1-3)GlcNAc(b1-3)Gal(b1-4)GlcNAc(b1-2)Man(a1-3)[Gal(b1-3)GlcNAc(b1-3)Gal(b1-4)GlcNAc(b1-2)Man(a1-6)]Man(b1-4)GlcNAc(b1-4)GlcNAc
# How it was run: (§1)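 Arrays were curated from the Consortium for Functional Glycomics database, 3228 in total, and kept only where the protein sequence was available. Binding is expressed as a within-array Z-score. This score was averaged across arrays of the same protein sequence at different concentrations or buffers and across linkers, and negative values can be read as non-binding.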
# [2] = target: Gal(b1-3)GlcNAc(b1-3)Gal(b1-4)GlcNAc(b1-2)[Gal(b1-3)GlcNAc(b1-3)Gal(b1-4)GlcNAc(b1-6)]Man(a1-6)[Gal(b1-3)GlcNAc(b1-3)Gal(b1-4)GlcNAc(b1-2)Man(a1-3)]Man(b1-4)GlcNAc(b1-4)[Fuc(a1-6)]GlcNAc
# How it was run: as §1
# [3] = target: Gal(b1-3)GlcNAc(b1-3)Gal(b1-4)GlcNAc(b1-3)Gal(b1-4)GlcNAc(b1-2)[Gal(b1-3)GlcNAc(b1-3)Gal(b1-4)GlcNAc(b1-3)Gal(b1-4)GlcNAc(b1-6)]Man(a1-6)[Gal(b1-3)GlcNAc(b1-3)Gal(b1-4)GlcNAc(b1-3)Gal(b1-4)GlcNAc(b1-2)Man(a1-3)]Man(b1-4)GlcNAc(b1-4)[Fuc(a1-6)]GlcNAc
# How it was run: as §1
# [4] = target: Gal(b1-3)GlcNAc(b1-3)Gal(b1-4)GlcNAc(b1-6)[Gal(b1-3)GlcNAc(b1-3)]Gal(b1-4)Glc
# How it was run: as §1
# [5] = target: Gal(b1-3)GlcNAc(b1-3)Gal(b1-4)[Fuc(a1-3)]GlcNAc
# How it was run: as §1
# [6] = target: Gal(b1-3)GlcNAc(b1-3)Gal(b1-4)[Fuc(a1-3)]GlcNAc(b1-6)[Gal(b1-3)GlcNAc(b1-3)]Gal(b1-4)Glc
# How it was run: as §1
# [7] = target: Gal(b1-3)GlcNAc(b1-3)GalNAc
# How it was run: as §1
# [8] = target: Gal(b1-3)GlcNAc(b1-6)Gal(b1-4)GlcNAc
# How it was run: as §1
# [9] = target: Gal(b1-3)GlcNAc(b1-6)GalNAc
# How it was run: as §1
# [10] = target: Gal(b1-3)GlcNAc(b1-6)[Gal(b1-3)]GalNAc
# How it was run: as §1
# Gal(b1-3)GlcNAc6S = target: Gal(b1-3)GlcNAc6S
# How it was run: as §1
# [11] = target: Gal(b1-3)[Fuc(a1-4)]GlcNAc
# How it was run: as §1
# [12] = target: Gal(b1-3)[Fuc(a1-4)]GlcNAc(b1-2)Man
# How it was run: as §1
# [13] = target: Gal(b1-3)[Fuc(a1-4)]GlcNAc(b1-2)Man(a1-3)[Gal(b1-3)[Fuc(a1-4)]GlcNAc(b1-2)Man(a1-6)]Man(b1-4)GlcNAc(b1-4)[Fuc(a1-6)]GlcNAc
# How it was run: as §1
# [14] = target: Gal(b1-3)[Fuc(a1-4)]GlcNAc(b1-3)Gal(b1-3)[Fuc(a1-4)]GlcNAc
# How it was run: as §1
# [15] = target: Gal(b1-3)[Fuc(a1-4)]GlcNAc(b1-3)Gal(b1-4)[Fuc(a1-3)]GlcNAc
# How it was run: as §1
# [16] = target: Gal(b1-3)[Fuc(a1-4)]GlcNAc(b1-6)GalNAc
# How it was run: as §1
# [17] = target: Gal(b1-3)[GlcNAc(b1-6)]GalNAc
# How it was run: as §1
# [18] = target: Gal(b1-3)[Neu5Ac(a2-6)]GalNAc
# How it was run: as §1
# [19] = target: Gal(b1-3)[Neu5Ac(a2-6)]GlcNAc(b1-4)Gal(b1-4)Glc
# How it was run: as §1
# [20] = target: Gal(b1-3)[Neu5Ac(b2-6)]GalNAc
# How it was run: as §1
# Gal(b1-4)Gal = target: Gal(b1-4)Gal
# How it was run: as §1
# [21] = target: Gal(b1-4)GalNAc(a1-3)[Fuc(a1-2)]Gal(b1-4)GlcNAc
# How it was run: as §1
# [22] = target: Gal(b1-4)GalNAc(b1-3)[Fuc(a1-2)]Gal(b1-4)GlcNAc
# How it was run: as §1
# Gal(b1-4)Glc = target: Gal(b1-4)Glc
# How it was run: as §1
# Gal(b1-4)Glc6S = target: Gal(b1-4)Glc6S
# How it was run: as §1
# Gal(b1-4)GlcNAc = target: Gal(b1-4)GlcNAc
# How it was run: as §1
# [23] = target: Gal(b1-4)GlcNAc(a1-6)Gal(b1-4)GlcNAc
# How it was run: as §1
# Gal(b1-4)GlcNAc(b1-2)Man = target: Gal(b1-4)GlcNAc(b1-2)Man
# How it was run: as §1
# [24] = target: Gal(b1-4)GlcNAc(b1-2)Man(a1-3)Man(b1-4)GlcNAc(b1-4)GlcNAc
# How it was run: as §1
# [25] = target: Gal(b1-4)GlcNAc(b1-2)Man(a1-3)[Gal(b1-4)GlcNAc(b1-2)Man(a1-6)]Man(b1-4)GlcNAc(b1-4)GlcNAc
# How it was run: as §1
# [26] = target: Gal(b1-4)GlcNAc(b1-2)Man(a1-3)[Gal(b1-4)GlcNAc(b1-2)Man(a1-6)]Man(b1-4)GlcNAc(b1-4)[Fuc(a1-6)]GlcNAc
# How it was run: as §1
# [27] = target: Gal(b1-4)GlcNAc(b1-2)Man(a1-3)[Gal(b1-4)GlcNAc(b1-2)Man(a1-6)][Gal(b1-4)GlcNAc(b1-4)]Man(b1-4)GlcNAc(b1-4)[Fuc(a1-6)]GlcNAc
# How it was run: as §1
# [28] = target: Gal(b1-4)GlcNAc(b1-2)Man(a1-3)[Gal(b1-4)GlcNAc(b1-2)Man(a1-6)][GlcNAc(b1-4)]Man(b1-4)GlcNAc(b1-4)[Fuc(a1-6)]GlcNAc
# How it was run: as §1
# [29] = target: Gal(b1-4)GlcNAc(b1-2)Man(a1-3)[GlcNAc(b1-2)Man(a1-6)]Man(b1-4)GlcNAc(b1-4)GlcNAc
# How it was run: as §1
# [30] = target: Gal(b1-4)GlcNAc(b1-2)Man(a1-3)[GlcNAc(b1-4)][Gal(b1-4)GlcNAc(b1-2)Man(a1-6)]Man(b1-4)GlcNAc(b1-4)GlcNAc
# How it was run: as §1
# [31] = target: Gal(b1-4)GlcNAc(b1-2)Man(a1-3)[Man(a1-6)]Man(b1-4)GlcNAc(b1-4)GlcNAc
# How it was run: as §1
# [32] = target: Gal(b1-4)GlcNAc(b1-2)Man(a1-6)Man(b1-4)GlcNAc(b1-4)GlcNAc
# How it was run: as §1
binder,measurement,setting,value
B1,glycan array binding signal (z-score),[1],-0.414
same,glycan array binding signal (z-score),[2],-0.058
same,glycan array binding signal (z-score),[3],0.29
same,glycan array binding signal (z-score),[4],-0.117
same,glycan array binding signal (z-score),[5],-0.448
same,glycan array binding signal (z-score),[6],-0.311
same,glycan array binding signal (z-score),[7],-0.075
same,glycan array binding signal (z-score),[8],-0.138
same,glycan array binding signal (z-score),[9],0.139
same,glycan array binding signal (z-score),[10],-0.041
same,glycan array binding signal (z-score),Gal(b1-3)GlcNAc6S,-0.154
same,glycan array binding signal (z-score),[11],-0.347
same,glycan array binding signal (z-score),[12],0.366
same,glycan array binding signal (z-score),[13],0.213
same,glycan array binding signal (z-score),[14],-0.426
same,glycan array binding signal (z-score),[15],-0.4
same,glycan array binding signal (z-score),[16],0.228
same,glycan array binding signal (z-score),[17],-0.208
same,glycan array binding signal (z-score),[18],-0.371
same,glycan array binding signal (z-score),[19],-0.295
same,glycan array binding signal (z-score),[20],-0.199
same,glycan array binding signal (z-score),Gal(b1-4)Gal,0.383
same,glycan array binding signal (z-score),[21],-0.557
same,glycan array binding signal (z-score),[22],-0.219
same,glycan array binding signal (z-score),Gal(b1-4)Glc,-0.336
same,glycan array binding signal (z-score),Gal(b1-4)Glc6S,0.512
same,glycan array binding signal (z-score),Gal(b1-4)GlcNAc,-0.292
same,glycan array binding signal (z-score),[23],-0.468
same,glycan array binding signal (z-score),Gal(b1-4)GlcNAc(b1-2)Man,-0.082
same,glycan array binding signal (z-score),[24],-0.087
same,glycan array binding signal (z-score),[25],0.112
same,glycan array binding signal (z-score),[26],0.034
same,glycan array binding signal (z-score),[27],-0.619
same,glycan array binding signal (z-score),[28],-0.527
same,glycan array binding signal (z-score),[29],-0.033
same,glycan array binding signal (z-score),[30],-0.154
same,glycan array binding signal (z-score),[31],-0.101
same,glycan array binding signal (z-score),[32],-0.071

# — the supplement of paper PMC8728848
